Test results taken from the supplement of paper PMC10126150.
Sequences with one replicate were seen in a single cluster, so their values are uncertain.

System: ATP
Test: switch fluorescence ratio, 500 uM ATP over buffer (Cy3 cluster intensity, sum of 5 cycles each) (fold (ratio)); higher = stronger signal-on switching upon ATP binding; sequences stand for … in TCGTCGGCAGCGTCAGATGTGTATAAGAGACAGTTTTTTTTTTTTTTTTTTTTTTTTT…TC
Details: aptamer strand: ATP DNA aptamer (quencher-CACCTGGGGGAGTATTGCGGAGGAAGG + anchor), 100 nM annealed; ATP concentration: 500 uM; one replicate
In short: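 Cy3-labelled switching-strand clusters on a modified Illumina MiSeq flow-cell were annealed to 100 nM quencher-labelled ATP aptamer and imaged first in selection buffer, then after 15 min with 500 uM ATP at 22 °C. NaOH stripping and re-annealing separated each of five buffer/ATP cycles, and clusters outside 100-1000 RFU were excluded. The fluorescence ratio sums target-cycle Cy3 intensity over buffer-cycle Cy3 intensity per cluster and averages it per switch-domain sequence.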
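Further: ATP exposure 15 min at 22 °C before imaging.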

Row | Sequence | switch fluorescence ratio
1 | GCGATTTAAT | 0.976
2 | TGCTAATGAG | 0.977
3 | AGAGTGCTGC | 1.05
4 | GCAGCAGCGA | 1.16
5 | TGACGTAGAA | 1.07
6 | TCTGCTCCTC | 1.16
7 | ATCGACCGGG | 1.02
8 | ACAATGTTCT | 1.03
9 | ATGACTGGAT | 1.02
10 | TGACCTATCA | 1.02
11 | ACAGCTGTAT | 1.04
12 | CAGGCCGGTG | 1.04
13 | TACAGTGACT | 1.04
14 | CATTCAGATA | 1.02
15 | GCGGGGAGCT | 0.966
16 | TTGGAGACTA | 1.15
17 | ATCACCGGTT | 1
18 | GATACGACG | 1.04
19 | ACATATAAAG | 1.03
20 | GATCGGACGT | 1.02
21 | CGAGTCCTTT | 0.974
22 | TTATGCTCTA | 0.988
23 | TCAGAAGGT | 0.998
24 | GTTATTTGCC | 0.978
25 | AGGACATGCT | 1.01
26 | GCGACTTGAT | 0.992

Row | Sequence | switch fluorescence ratio
27 | ACACGAGTAG | 1.03
28 | CGGTTACGTA | 0.971
29 | GCATCGAAC | 1
30 | GGATGCCGG | 1.11
31 | GTAGCCAACT | 1.05
32 | TTACGGCCGT | 1
33 | GTCGATCTAC | 1.05
34 | CAGTACATTC | 1.05
35 | CCCTTTAAGT | 0.994
36 | AAAGTGGAGC | 0.949
37 | ATAAACTCGC | 0.996
38 | GAATTTTTAG | 0.977
39 | CCGCATAGAA | 2.87
40 | GTCATCCGTC | 1.02
41 | CCAATCTGTA | 1.01
42 | GGTGGGCCGG | 0.998
43 | TTTAGTGTCC | 1.08
44 | CTACACGACG | 1.23
45 | AGGTTTGAGA | 1.02
46 | GCGGGATTGA | 1.04
47 | AATTCTTATG | 0.98
48 | CGGACGTGTG | 0.965
49 | CATAGTTAGC | 1.05
50 | GTTCGAAGCA | 1.2
51 | GAATGCTAGG | 0.984
52 | TGATTTTT | 1.03

Row | Sequence | switch fluorescence ratio
53 | TGGGCGAATT | 0.984
54 | GATCTATGGG | 0.968
55 | TCATCGCCGG | 1
56 | CAATCTTCA | 1.12
57 | GGGGGACCT | 1.11
58 | GTGTCTCTAG | 0.941
59 | CCCATGTCC | 1.04
60 | AAGGATAAAA | 0.973
61 | AAGATCGTAT | 0.924
62 | GGGGTAACTA | 1.04
63 | ACGGTCTAGC | 1.06
64 | TATTTGTCG | 0.934
65 | TTCTAGTGTT | 0.986
66 | TGCATTTCTC | 1.13
67 | ATGCTAATTC | 1
68 | GCGTTAATT | 1.02
69 | ACCCTAAACC | 1.17
70 | GACGAAACG | 1.09
71 | CGTGGTGAAA | 0.99
72 | GCACGGGCCT | 1.02
73 | TTTTACAGAC | 1.06
74 | AAATATTACG | 0.979
75 | TAGTACGTAG | 1.06
76 | TCTTTGACC | 1.01
77 | ACCGGTTTAT | 1.02
78 | GCTTCGTACA | 1.09

Row | Sequence | switch fluorescence ratio
79 | TCATCAATCT | 1.03
80 | CGGGCTGGAT | 1.01
81 | TAGTAATGT | 1.04
82 | TGCTATGCCT | 0.99
83 | CTGACTTCTT | 0.975
84 | ATCATCATAA | 0.996
85 | GTTGGTGTCC | 1.04
86 | AGTGGGGTCT | 1
87 | AAGGCCAATT | 0.977
88 | CACGCGGTCG | 1.03
89 | GCGATCGCG | 0.978
90 | TATAAAGTGA | 1.05
91 | TCGAGCCTGG | 1.01
92 | AAGGCTAAGT | 1
93 | CTTCCCAAGT | 1.2
94 | GGAGTACATC | 1.02
95 | TCGCATACAT | 1.33
96 | TCCTCGATAT | 1.79
97 | TTTCGACTAG | 1.01
98 | CGCACTAGAT | 1.05
99 | ATAGGACCCG | 1.07
100 | TGGACAGAAC | 1.1
101 | AAGCAAACGT | 1.13
102 | CTCGACCTAC | 1.8
103 | AGCCAAGATT | 0.977
104 | TGTAACTACG | 1.08

Row | Sequence | switch fluorescence ratio
105 | AGAGGAAGCA | 1.01
106 | CGGAGTCGC | 1.07
107 | CAAAGGAGCC | 1.01
108 | CCCCGGAACT | 1.74
109 | CGTATTTT | 0.937
110 | TAAATTAATG | 0.95
111 | AATTTAAGAG | 0.939
112 | AGATTCAAA | 0.987
113 | GTATGATC | 0.975
114 | CTGAGGGTCC | 0.966
115 | CATACCGATT | 1.02
116 | CAAAGGCGAG | 0.989
117 | AGAACTTTAT | 1.03
118 | ATCATCTCAT | 0.975
119 | TGCAGGCTCT | 0.982
120 | TAAACGTTCC | 1.46
121 | GGTTACTCCC | 1.76
122 | TTTTGAAAGC | 0.963
123 | CGGTTGCGAG | 1.03
124 | TTGAGTAATA | 1.05
125 | CGGCTTCTTT | 0.979
126 | GGGACTATGC | 1
127 | AAAATCCAGC | 0.965
128 | TATTTGCTAT | 1.02
129 | GATCGAGGTA | 0.942
130 | TTTCGCAGCC | 1.37

Row | Sequence | switch fluorescence ratio
131 | ATCCCCCTTT | 1.03
132 | TTTTATACTA | 1.06
133 | AAATTACAAG | 1.01
134 | GGTAAAATTC | 1
135 | AGAACAGGGG | 1.24
136 | GGGAGGGAGA | 1.03
137 | TCTTTCCGTT | 1.01
138 | TCCGTGATGT | 1.04
139 | AAGGGGTGCT | 0.981
140 | GAATATAGGA | 0.947
141 | CTCTTTATTT | 0.985
142 | CATGGGAAAG | 1.05
143 | TGGCATAGAA | 0.981
144 | GGGGTGGCAT | 0.978
145 | AGGTGTAAAA | 0.997
146 | AATTGTTCTC | 0.993
147 | CTACGACCAC | 1.86
148 | CATGGACATT | 0.968
149 | ACATGTATGG | 1.02
150 | TATCTATCGG | 0.962
151 | CTTGATTGTA | 1.01
152 | GTTGCATACG | 1.01
153 | TTTCGCTTCT | 1.93
154 | TGTTGATGGG | 0.992
155 | TAACAGATTG | 1
156 | ATTCCATCCG | 1.42

Row | Sequence | switch fluorescence ratio
157 | AACCGTCCCC | 2
158 | CGGAGAGTTA | 1.01
159 | AATGTAGATT | 0.958
160 | AGTCATGCGC | 1.06
161 | GCCGCTTGGT | 0.995
162 | GCCTGCCGCG | 1.2
163 | TTCGAGCGGT | 1.03
164 | ACTGGGCCG | 1.15
165 | GAGGCTGCGT | 0.976
166 | AGGGCTTGCC | 0.987
167 | CCGTTAGTAT | 1.13
168 | AGATTTGGTA | 1.01
169 | TTCCTGCTGT | 1.01
170 | CCGCGTGGTG | 1.06
171 | GTATGAGGAA | 1.02
172 | TGGAAATGGT | 1
173 | AGATGGGAT | 0.993
174 | GCGAGCTTGA | 0.984
175 | TGGATGAAGC | 0.968
176 | GACATTTTAC | 1.1
177 | TTACTGACTT | 1.11
178 | AGCTGAGATA | 0.993
179 | CTGCCTCGAC | 1.26
180 | CTATTGGGGT | 1
181 | TCGGCCTATA | 1.05
182 | GAGGGTGGAG | 1.03

Row | Sequence | switch fluorescence ratio
183 | GAGGACTCGG | 0.987
184 | GGTTGCTATT | 0.978
185 | ATTTGTTAGT | 1.01
186 | AAATTGGAGA | 0.978
187 | CTATCAGCGC | 0.983
188 | CATCTCATAA | 1.01
189 | GAATGTAGAG | 1.02
190 | ATAACTCTAT | 1.05
191 | ATAGCGTTTT | 0.975
192 | TACAATGGG | 1.01
193 | ATTTCTATGT | 0.983
194 | CCGTTGCTCG | 1.08
195 | ATGGCCTGAT | 1.03
196 | TTGGGCCCAC | 1.01
197 | CCCAGCAGAA | 2.33
198 | CCTTGTAGCG | 1.14
199 | TAAATGTAGC | 1.01
200 | AGGCGTGTGC | 1.05
201 | ACACGGGCAT | 1.03
